# ± gives the standard deviation of the averaged measurements. Whole data set: some 4,100 sequences, median “arbitrary fluorescence units” near 780, cut for the highest 2% near 22,000. The list shows a part of the results.
# Target: T1, ETS1 (UniProt P14921)
# T1 sequence: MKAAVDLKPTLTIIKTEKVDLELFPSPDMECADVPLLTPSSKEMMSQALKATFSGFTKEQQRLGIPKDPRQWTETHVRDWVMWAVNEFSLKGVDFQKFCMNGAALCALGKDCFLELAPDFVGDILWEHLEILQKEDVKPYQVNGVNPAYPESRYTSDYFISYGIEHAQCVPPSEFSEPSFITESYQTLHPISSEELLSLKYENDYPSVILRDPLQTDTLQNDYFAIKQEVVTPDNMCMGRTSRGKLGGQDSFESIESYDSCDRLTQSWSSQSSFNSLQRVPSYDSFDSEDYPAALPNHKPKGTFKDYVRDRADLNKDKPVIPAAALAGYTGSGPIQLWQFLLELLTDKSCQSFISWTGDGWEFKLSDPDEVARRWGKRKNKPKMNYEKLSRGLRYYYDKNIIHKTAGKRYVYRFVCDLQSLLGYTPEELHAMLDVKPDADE
# Assay: ETS1 binding intensity (PBM fluorescence), ETS1 alone (arbitrary fluorescence units); higher = stronger binding
# Conditions: ETS1 concentration 1 nM; RUNX1 concentration 0 nM
# Summary of the method: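 Full-length recombinant human ETS1 (1 nM, no RUNX1) was incubated, per standard PBM protocols, on double-stranded Agilent 4 × 180k arrays of 36-bp genomic probes whose RUNX1 partner site was mutated. Bound ETS1 was detected with anti-ETS1 antibody (Cell Signaling Technology 14069) and Alexa488-conjugated secondary antibody, then scanned on a GenePix 4400A. Binding level is spot fluorescence intensity, summarised over replicate spots (four printed per sequence) and not normalised.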
row,Sequence,ETS1 binding intensity
1,TGTGTATGAGAACGGATATAGGTGGATTTATAAGGA,1010
2,GCCGTGAGAAACATCCTGCCTAACTACCTGACTACA,6690
3,CACCTCGGGGGTTTCCGGTCCGTGGCTAGCTCCTTC,14800
4,GACATCCAGGAAGTGGTGAGAATCCACGTGTGTGTT,6910
5,GTCGGAAGTGGCCGTGAGCCCAAGCCGAGGTCCCGG,1130
6,CTCACAGGCCAGGAAAACAGCCGAAGTCACAGCAGG,387
7,ACCACACTTCCCAGGAGTCTCAGCGCCCGCGCGGAG,538
8,GAATCACCATTTCCTCACTCCCTCACAACCATGTTG,2790
9,GCACGTGTTTCCTGGGGCTGCACCCCAGCACCACAC,2380
10,CATTTCTTCCTTCCTTGGCCCCCGAAGTGCGCCCGC,862
11,TAAGAGGAGACCTTAAACCAGAACCCTTCCTGGCAG,345
12,AGGCTGTGGCGGAAGTGGTCGCGTTAGCGCTTGTTT,4470
13,AGGACTGTAGGTTAGCTGCTCTGGGATGTGGCTGGG,339
14,ATCTCCACATCCTCCCCATCGAGCGCATGGTTTACC,3030
15,GGGAGGGCGGAAGGCGGCTCAGCGGCAGCAAGCCCC,1010
16,GGCCGACGGGAAGTGTAGTCCGGCCTGCAGTCCGGG,1970
17,GACAAAGAGGAAGTCCCCAAAAACTACAATAACAGT,3600
18,GCCACAGCCGGAAGCAGGCTGACTACAAGTGCTAAG,5390
19,CCTCCCCCAGCGGCCGCCACTTCCTTTGTTGTTGCT,1500
20,GTGCCACTGAGAGGAAGGGGGCAACCCCAGTGGGAG,456
21,GCTGTCCATTTCCGAGATGTTAATGCGCGATCTTGC,1780
22,GCAAACGGAAGAGAGGAACGAAGGCCGAAGAGCTTG,945
23,CCTTCCTTCCGGGGTCGGCCCCGCCCCCAAGCGCCG,5970
24,GTTTGGAGGAAGGACCCAGGGGCCCTTGTAGCTCAC,416 ± 52
25,CCCACATCCCGTGAGTCACCAGGTCCCATAAACCCT,4270

row,Sequence,ETS1 binding intensity
1,CTCCTGTAGTTTCTAAACTGTCAGGATGTTGGCTTG,397
2,GGCCTACGGCTGCTTCAGGCTCTCGGGAAGGAAGTT,323
3,ACTGTGTCTGGTGTTCCACAGAGGAAACTGCAAAGC,409
4,CAGCCCCAGGCGGATTAGTTTTTTAGGAAACCGAGA,432
5,CCCCTACTTCCCTTTTTGCTGGGCCGTAGTTTCGGT,3010
6,TCAGGGCTACAAGCTTGGGGCTGCTTCCTGGAACTG,421
7,CGGGACCTGTTTCCTTGGGAACTACAAGATAAGACC,520 ± 21
8,ACCAGGATGTAGTTTAGCTTAGGGGTAGTTATATCG,845
9,GCACACCGGAACTCACACCTGAAATCACAGAACCAA,3600
10,GGGATCTGGGTTCTGGGGTGCAGGATGTGGGGTGCT,509
11,GGGTGCTTACTCGGCATGCTGTTGGGCTTCCGGTGT,1260
12,TTCTGCACCAGAACTGTGCTCTGAGTTCAGGAAACT,354
13,GCTGCTTCCGGCCGCTGGTCGCAGGGCTGAGGGACT,26400
14,GTGGTGCTTTTCAGGTTGATACCGCTTCCTGAAGAT,627
15,TCTCTTCAATCTGGTCCCCATCCGGCCACACCATCT,953
16,TCCCCTGTAGGTTCCCCTCCCCAGGATGTTGCCACC,466
17,CTCTCCACCTCCTTCCGACCAGGACCTCACCCCCCC,574
18,GCACAAAATCGCACAAACAGCCGGAAGCACAGCCCC,1430
19,CCTGTTCCGGGCTCCGTACACCCAGGCCTGCAGCTG,1650
20,CACTACCCCAAATTATGCAGTGGAATTTCCTACATT,520 ± 25
21,AAGCTTCCTGGCCCTTTAAAAATGGAGGTTCCGCAC,4840
22,CCAGGCGGAAGCGGCCGGGAGTAGCGCTGCTGTTGG,2190
23,GTCGGGAAGTAGGCGGGGTGACGTGTCGTTGACGAG,685
24,CCCCCGTGTCGTCCGCCCATGCTAACTTCCTGCCGG,2120
25,CTCTCTTGCGATTTGCAGCCAGATCACTTCCCATAC,521

row,Sequence,ETS1 binding intensity
1,AGCAAGGCCTACGGGGAGGCGCAGGATGGACGCGTT,352
2,ATGGGAGGAAGAGACAGAGGCCTGGCCACTAAGTGG,497
3,CCGCCACCGAAGCCTCAGCAGCAGTTGCCGGAAGAA,376
4,TTGCTAGAGGAAGCGCTGCCCCGGCAGCCCCAGCCA,750
5,CAAGGGAACATCCTTAAACAGCTTGTCGTATTGCTG,1580
6,GCCTCCGGATCTATGGCAGCCTGTGGCTCACGACAC,331
7,GAAGTCACATCCTGTCTGTTGGGGCAGGGCACAGAG,23500
8,GGTTACTAGACAACAGCTTTTGTCCAGGATGTGGCT,464
9,AATATAGAGGTTCAAAACAAGAGGAAGTGTGGCAAG,590
10,AGAAGGGCCACGACCGTCACGTGTTCCTCTTCCGCA,357
11,CGGCCGCCGTTTAGGGCGGCCCCGGAAGCGGGGCGC,531
12,ACTGTTGTCAGGGCTGCCCTGAGTCATCCTGCGGAG,324
13,TAGGTCTGAGGGTGACGTCTGTTTCCTGTGATTGAA,1290
14,TTTCTCAGGGTGATCGCGTTCCTTCCGCCCAGAGAG,619
15,GCTGGGGCAGGAAGCTTCTAGGCCAGAGACAGGACG,1630
16,GTCCCTCCACGAACGCCCCCAGCTTCCTGCTCCCCA,1070
17,TGCAGCCCCCTCAGCCATCATCTTCCTGAGTCAACA,395
18,TATTCTTCCTGTACTTAAGCTTGCTGGTGTGATTTC,4620
19,ACAACCCCAACGCGCGGCGCCGCCACCGGAAAAGGA,614
20,CCCCTGCCCCTTCCTGGAAGGCTGGGGTGTAACACC,1670
21,ACCGTTAACTCAAGCACTAACATTTCCTGTTCTGGT,3540
22,CCGAGCGCACCAGCTCCCGCGCGTGGTTCCGCCGCT,324
23,TGCACTCCACTTCCCCTCGCCCGAAGTGAGCAGTCA,2340
24,TCTGCTGTCAGCTGACTGTGCCAGAGTTCCGCGGGG,373
25,TCTGGGAAATGGAGTTCACAGCGCTCCGGGGCCGGA,333

row,Sequence,ETS1 binding intensity
1,GAAGCAGACAGGAAGTGGGTCTGAGCGGAGGAGGGA,13300
2,CTATATCACATCCTTTCTCTGGCCGCGCTGACTTCG,2540
3,CCGCGCACCCGGAACTACCTCCCGACCCTCATCCCC,775
4,CAACGACACCAAAGCACCACCACTTCCTTGAATCTG,808
5,GCTATCGAGCTTCCTGCAGCGGTGTCCACCCGAGCA,3850
6,GACGCTCTCTTCCTGTCTTTGGGGCTCCAGAAAGGC,5570
7,GGCCGTTCTTCCGCCTGCAGGGTGCTCAGCGGAGGT,2970
8,GCCTTTTGGGGTTTGTACCACTTCCTGCCTTTTCTG,4950
9,CAACCGAAGTAACACGCAATGCGGAAGGGCGAGGGG,494
10,TGGGCGCTGACGCGCAACCAGGAAGCGGCGGACACT,594
11,TGTTCGGTCGTTGTCTCGGGGGGTTGCAGGAAGATC,717
12,AGCACTCTGAGCGCATGCAAAGGAAGTTCCTTTCGC,468
13,GTAACAACACCCCAGCGGACAGGAAGAGGTCACCAA,829
14,TGTGTCAAGGCGCAGGCAGCGATTCCGGACTCTGGG,343
15,GGAGGTGGGGAGGAAGTTCTGAAACTACACACATTT,1560
16,GCTCCCTCTTGCCGCCCTTTTCCGGGGCAAGGGAAG,928
17,CTTCAGCCGCCACTTCCCCGCCCCCGGAGCCCGACA,760
18,AGAACAGGATGTTCTGAGTACAGCATGAACCTTAAA,3060
19,GTGTGAAGGAAGTGTGAGATCAAATCACAGCTGGGT,717
20,GTGAGACAAGACAACAGGCCACATTTCCTCTAAGTA,918
21,GCTCGCGTCATCCTGCAGCGCCGACACCAGAGACAC,861
22,CTTTTTGATTTCCTCAAGCATCCCAGAAATACACAG,2020
23,CCGTGCTTTGTTTTACATACCCCAGCATCCTGTATG,730
24,ACTCTGAGGGCCAAGAAAGGTGACCGGGCTTCCTTC,328
25,TTGCTGTCATCCTGTTCTCCCAGCTAAGCTACAGGA,2700

row,Sequence,ETS1 binding intensity
1,GAAGCCAGGAAATGGTGCGTGCGCGGGGCCGGGCGC,2210
2,GACTGGGAAGGAAGGGGAGGCGGCAAGCACCCTTCA,478
3,GCTGTCCGTTTCCGAGATGTTAATGCGCGATCTTGC,1460
4,CCAACGAGCACTTCCGCTTCCCGAAGCTCCAGCGGC,27700
5,CATGGGGAGGAGGAAGTGGTGGCGGGCGCTGGCCAG,1420
6,TGCGTAGGCGCAGCCAACGCGCCTTCCGGGTAGCCA,515
7,TGAAGGGACGGAAGGGACAGAACTTTCGGGAGGCAC,395
8,AATCCACCGCCATCCGCGGCCCGTAGGAACGCCAGG,367
9,TACGCTGTAGGCGGAGGCGGGCAGGAAATTCACTTA,677
10,TGGTGGCTATTTCCTCTCCCGCTGTAGTCCCTGGAG,3630
11,CGAAGAGGAAACAAAGAAAGGTGCTGTTCTGGCGCC,506
12,TACCATAAAACTTCCCTGGGGAAATCGCCCACTCCC,438
13,AGTCGTTCCGCCACCTCCCAGTCGGGTTTCGGCGGA,349
14,CAAAGTGATGGGGGAAATGGTTGTAGTTTTGGGTGG,514
15,CCTCTGCAGTCTCTGCAGCCGTTTGCATTTCCTGAA,539
16,TTGAGCGCCGTCTCGCCTCCGCTTCCTCCTCACTCC,433
17,GCTGCAAGGCGGAAGCAGCGCGCTCGGACGGGCATG,1590
18,AACACACACGTGGATTCTCACCACTTCCTGGATGTC,1540
19,AAATCAAAACCCCAATCAGATACCACTTCCTGCCCA,2350
20,ATAGTCACCGTTCCGGCCCTCCTCCACTGCACTTCT,489
21,CACGTGCGCGGGAGGGAAGCAGGAAGTGACAGCGGG,3100
22,GGGGCTGTGCTTCCGGCTGTTTGTGCGATTTTGTGC,6150
23,CCGGTCGGGGCTGCAGCCGCTTCCGGAGCCGCGGGC,3060
24,CCTTGCTACAGGATGTTTTGACAACGAGCCCAGGAG,1240
25,CTGAGCCGTAGACATGAAACCATGGCTTCCTTCACA,375
